Source: paper PMC4336329 (PLoS ONE, 2015)
Hit rate of the full screen: of about 310,000 compounds, about 14,000 (4.5%) showed an effect of 50% or more. The effect is printed as a negative number. The list shows a part of the results.

The compounds below were run against human ether-à-go-go-related gene (hERG) potassium channel (human, UniProt Q12809) (assay: primary screen, population patch clamp on CHO cells stably expressing hERG).
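Note: peak tail current of the secondary pulse compared with the same well before compound.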

human ether-à-go-go-related gene (hERG) potassium channel, sequence (Q12809 whole entry, looked up): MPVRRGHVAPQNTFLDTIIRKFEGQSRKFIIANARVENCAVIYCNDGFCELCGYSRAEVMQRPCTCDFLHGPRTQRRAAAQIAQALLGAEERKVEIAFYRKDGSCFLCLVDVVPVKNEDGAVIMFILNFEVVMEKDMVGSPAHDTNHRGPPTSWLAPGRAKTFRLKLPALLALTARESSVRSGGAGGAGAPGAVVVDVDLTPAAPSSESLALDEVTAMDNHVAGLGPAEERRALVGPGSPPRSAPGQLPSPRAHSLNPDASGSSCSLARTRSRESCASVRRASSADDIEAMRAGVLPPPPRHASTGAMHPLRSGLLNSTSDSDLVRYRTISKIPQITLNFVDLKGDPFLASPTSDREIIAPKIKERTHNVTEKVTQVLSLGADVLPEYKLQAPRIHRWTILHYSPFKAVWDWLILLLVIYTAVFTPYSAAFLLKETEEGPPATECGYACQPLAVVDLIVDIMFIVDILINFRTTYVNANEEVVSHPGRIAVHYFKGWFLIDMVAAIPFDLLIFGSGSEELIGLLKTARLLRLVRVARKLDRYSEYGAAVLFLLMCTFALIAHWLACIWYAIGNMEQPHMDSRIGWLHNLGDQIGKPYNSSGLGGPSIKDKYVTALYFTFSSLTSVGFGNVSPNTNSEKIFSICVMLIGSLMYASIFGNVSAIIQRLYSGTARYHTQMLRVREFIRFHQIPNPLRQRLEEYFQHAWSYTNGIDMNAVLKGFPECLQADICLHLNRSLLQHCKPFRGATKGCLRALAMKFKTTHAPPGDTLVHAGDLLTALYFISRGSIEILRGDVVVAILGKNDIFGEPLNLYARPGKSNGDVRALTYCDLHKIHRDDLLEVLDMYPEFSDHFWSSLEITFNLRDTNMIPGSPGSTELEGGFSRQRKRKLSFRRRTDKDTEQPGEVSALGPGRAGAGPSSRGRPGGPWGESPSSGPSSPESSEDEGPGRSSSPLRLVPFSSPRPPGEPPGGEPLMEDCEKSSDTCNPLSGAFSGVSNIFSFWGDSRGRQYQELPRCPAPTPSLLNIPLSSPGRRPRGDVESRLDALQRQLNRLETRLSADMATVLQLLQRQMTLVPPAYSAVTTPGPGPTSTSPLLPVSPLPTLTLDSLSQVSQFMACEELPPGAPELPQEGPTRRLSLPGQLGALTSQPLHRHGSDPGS

| Compound | hERG current change (%, negative = inhibition) at 10uM |
| --- | --- |
| COc1ccc2[nH]c(=O)c(CN(C3CCCCC3)C(c3nnnn3Cc3ccco3)C(C)C)cc2c1 (centres unmarked) | 11% |
| O=C(COc1ccccc1Cl)Nc1ccc(N2CCCC2)cc1 | 12.9% |
| CCn1nnnc1SCC(=O)Nc1ccc(OC)cc1 | 5.12% |
| COc1ccccc1N1CCN(S(=O)(=O)c2ccccc2F)CC1 | -23.3% |
| CCCS(=O)(=O)N1CCN(CC2CC3C=CC2C3)CC1.O=C(O)C(=O)O (centres unmarked) | -5.93% |
| COc1ccc(NC(=O)CC2C(=O)N(C)C(=S)N2Cc2cccs2)cc1 (centres unmarked) | -26.7% |
| OCCC1CN(CC(c2ccccc2)c2ccccc2)CCN1C1CCCC1 (centres unmarked) | -71.2% |
| CC1CC(C)CN(CCCNC(=O)c2cn(C)c3ccc(S(=O)(=O)N4CCCC4)cc3c2=O)C1 (centres unmarked) | -15.3% |
| Cc1cc(NC(=O)CCCN2C(=O)c3cccnc3C2=O)ccc1Br | -11.8% |
| Cc1cccc(-n2nnnc2-c2cnccc2C(F)(F)F)c1C | -1.03% |
| CCOC(=O)c1c(N)sc2c1CCC1C(=O)N(C3CCCCC3)C(=O)C21 (centres unmarked) | 3.56% |
| CC(=O)N/N=C(\C)CC(=O)NC(C)(C)C | 11.1% |
| O=C1N=C(N2CCCC2C(=O)O)S/C1=C\c1ccco1 (centres unmarked) | 35% |
| Cc1cccc(OCC(=O)NCc2ccncc2)c1C | -1.08% |
| CCn1cc(CN2CCC(n3nccc3NC(=O)CCc3ccccc3)CC2)cn1 | 2.28% |
| Cc1nc(N=C(N)N)nc2ccccc12 | 23.6% |
| CCn1c(COc2ccccc2C)nnc1SCC(=O)O | 16.3% |
| CC1(C)CC(=O)c2sc(NS(=O)(=O)c3cc(Cl)ccc3Cl)nc2C1 | 22% |
| C#CCOc1nc2c(c(=O)n(C)c(=O)n2C)n1Cc1ccccc1 | -1.57% |
| O=C(NCc1ccccc1)C1CC(=O)N(C2CCCCC2)C1 (centres unmarked) | 17.8% |
| Cn1sc(NC(=O)c2ccccc2Cl)nc1=O | -3.63% |
| Cc1cc(Br)c(NC(=O)CN(C)CCOc2ccccc2)c(Br)c1 | -19.5% |
| Cc1cccc(NC(=S)Nc2cccc(C(F)(F)F)c2)n1 | 3.8% |

| Compound | hERG current change (%, negative = inhibition) at 10uM |
| --- | --- |
| ClC1=CCC2CN(CCN3CCCCC3)CC2C1 (centres unmarked) | 6.22% |
| Cc1cc(C(=O)Nc2nccs2)c2cc(F)ccc2n1 | 7.7% |
| C=C(C)Cn1c(SCC(=O)N/N=C/c2cccc(O)c2)nc2ccccc2c1=O | 9% |
| Cc1cc2nc(-c3ccc(SCC(=O)N4CCOCC4)nc3)[nH]c2cc1C | 4.82% |
| CC(C)CCn1c(=S)[nH]c2ncccc2c1=O | -7.69% |
| COc1ccc(N2CCN(C(=O)c3cccc(NC(=O)c4ccco4)c3)CC2)cc1 | -43.8% |
| COc1ccc2nc(NC(=O)Cn3cnc4c(=O)n(C)c(=O)n(C)c43)sc2c1 | -67.9% |
| O=C(c1cnc2nc3ccccc3n2c1)c1cc(F)ccc1O | 2.44% |
| CCOC(=O)c1c(C)[nH]c(C(=O)CSc2ccccc2)c1C | 3.05% |
| COc1ccc(-c2c(C)c3ccc(OCC(C)=O)cc3oc2=O)cc1 | 12.4% |
| CC(=O)c1cccc(NC(=O)N2C3CCC2CC(NC(=O)Nc2ccccc2)C3)c1 (centres unmarked) | 8.61% |
| CCN1CCN(S(=O)(=O)c2ccc(Cl)c(C(=O)N(C)CCOc3ccc(Cl)cc3)c2)CC1 | -52.8% |
| CSc1ccc(N/N=C(/C#N)S(=O)(=O)C(C)(C)C)cc1 | 14.9% |
| O=C(COC(=O)c1ccc2ncsc2c1)NCc1cccc(Cl)c1 | -11.2% |
| COc1ccc(Br)cc1/C=N/NC(=O)c1ccco1 | 12.9% |
| CC(=O)c1ccc(N2C(=NC(=O)COc3ccccc3)SC3CS(=O)(=O)CC32)cc1 (centres unmarked) | -3.89% |
| CN(C)C1=NCCN1CCCC1CCCCC1 | -38.6% |
| COCCn1c(C)cc(C(=O)CN2C(=O)NC3(CCCCCCC3)C2=O)c1C | -59% |
| O=C(NCCSc1ccccc1)c1ccco1 | 0.234% |
| O=C(COC(=O)C1CC2CCCC(C1)C2=O)Nc1ccccc1 (centres unmarked) | 0.275% |
| Cc1c(C(=O)OCC(C)C)[nH]c2c1C(=O)CC(c1ccco1)C2 (centres unmarked) | -8.81% |
| COc1ccc(-n2nc3c(c2NC(=O)C(C)Oc2ccccc2)CS(=O)(=O)C3)cc1 (centres unmarked) | 1.66% |
| CCN(CC)c1ccc(/C=N/NC(=O)CNC(=O)c2cccs2)cc1 | -1.96% |

| Compound | hERG current change (%, negative = inhibition) at 10uM |
| --- | --- |
| Cc1oc2ccc(O)cc2c1C(=O)c1ccc([N+](=O)[O-])cc1 | -6.29% |
| CCCN(CCC)S(=O)(=O)c1cccc(C(=O)Nc2ccc3c(c2)OCO3)c1 | -26.5% |
| N=C1CCC(=N)c2c1c(O)c1ccccc1c2O | 9.3% |
| COc1ccc(CCc2nnc(N)s2)cc1OC | 12.3% |
| O=C(NC1CCCCC1)C1c2ccccc2C(=O)N1Cc1ccc2c(c1)OCO2 (centres unmarked) | 25.3% |
| CCN1CCN(Cc2nc3cc(NC(=O)COc4ccc([N+](=O)[O-])cc4)ccc3n2C)CC1 | -18.7% |
| COc1ccccc1CNC(=O)c1cccnc1 | 18% |
| Cn1c(N)c(C(=O)COC(=O)c2cccc(S(=O)(=O)N3CCCCC3)c2)c(=O)n(C)c1=O | -34.2% |
| CCCCCCSc1cc(-c2nc3ccc(Cl)cn3c2NC2CCCCC2)ccc1OC.O=C(O)C(F)(F)F | 7.13% |
| Cc1nc(CN2CCN(C(=O)CCc3nnc(Cc4c[nH]c5ccccc45)o3)CC2)cs1 | 31.9% |
| COc1ccc(CCN2CC(C(=O)NCc3c(C)n[nH]c3C)CCC2=O)cc1 (centres unmarked) | 7.61% |
| Cc1ccccc1CNC(=O)CCNS(=O)(=O)c1ccc(OC(F)(F)F)cc1 | 5.29% |
| Cc1ccc(S(=O)(=O)Cn2nnnc2C(C(C)C)N2CCN(C(=O)c3ccco3)CC2)cc1.Cl (centres unmarked) | -34.4% |
| COc1ccc(OCCCN(C)Cc2ccccc2)cc1.O=C(O)C(=O)O | -39.3% |
| Cc1c(C(=O)N2C[C@@H](C)O[C@@H](C)C2)oc2c(F)cccc12 | 5.94% |
| O=C(Cn1cc2c(n1)CCCC2)Nc1ccccc1Br | 1.06% |
| COc1ccc(NS(=O)(=O)c2ccc(OCC(=O)N3CCN(C)CC3)cc2)cc1Cl | -7.55% |
| CC(C)(C)Nc1c2ccccc2nc2ccccc12 | -68.2% |
| O=C(COC(=O)c1ccccc1Nc1ccccc1)c1ccccc1 | 13.5% |
| COc1ccc(CCN2C(=O)c3[nH]nc(-c4ccccc4O)c3C2c2ccccc2)cc1OC (centres unmarked) | 17.8% |
| S=C1NNC2(NN1)C1CC3CC(C1)CC2C3 | 12.7% |
| COC(=O)C1=C(C)N(CCc2ccc(OC)c(OC)c2)C(=O)C1 | 18.5% |
| CS(=O)(=O)NC1c2cccc3cccc(c23)C1N1CCOCC1 (centres unmarked) | -11.4% |

| Compound | hERG current change (%, negative = inhibition) at 10uM |
| --- | --- |
| O=C(CN1CCN(S(=O)(=O)c2ccc(Br)cc2)CC1)c1ccc(O)c(O)c1 | -76.8% |
| O=C(N/N=C/c1ccc(Br)s1)c1ccncc1 | 2.05% |
| O=[N+]([O-])c1cccc(N(CC(O)CN2CCCCC2)S(=O)(=O)c2ccccc2)c1 (centres unmarked) | -43.8% |
| O=C(CNC(=O)c1ccc(Br)o1)Nc1cccc(S(=O)(=O)N2CCCC2)c1 | 5.32% |
| NS(=O)(=O)c1ccc(CCNC(=O)C(=O)NCC2OCCN2S(=O)(=O)c2ccc(Cl)cc2)cc1 (centres unmarked) | 7.23% |
| CCOC(=O)c1cnn(-c2ccccc2)c1-n1cccc1C(=O)C(=O)Nc1ccccc1 | 4.93% |
| COc1ccc(C(=O)NC(=S)Nc2ccc3oc(=O)ccc3c2)cc1OC | 13.5% |
| CCCCCCCCCCCCC(NC(C)=O)(C(=O)OCC)C(=O)OCC | 12.7% |
| COc1cccc(C(=O)N2CCN(S(=O)(=O)Cc3ccccc3)CC2)c1 | -3.18% |
| CCCCn1c(O)c(C(C)=NCc2ccco2)c(=O)[nH]c1=O | -7.3% |
| C=CC1CN2CCC1CC2c1[nH]c2ccccc2c1CCO (centres unmarked) | -32.2% |
| COc1ccc(NC(=O)[C@@H](NC(=O)N2C[C@H]3C[C@@H](C2)c2cccc(=O)n2C3)C(C)C)cc1 | 10.9% |
| CN(C)c1cc[n+](CC(=O)Nc2cc(C(F)(F)F)ccc2Cl)cc1.[Cl-] | 7.63% |
| O=C(COc1ccccc1[N+](=O)[O-])OCC(=O)N1CCC(Cc2ccccc2)CC1 | 6.08% |
| N#Cc1c(N2CCSCC2)nsc1-c1ccccc1Cl | 4.75% |
| CCN(C(=O)c1cc(S(=O)(=O)N2CCCCC2)c[nH]1)c1ccc(OC)cc1 | 0.475% |
| NNC(=O)c1nc(Cl)c(Cl)c(N)c1Cl | 8.65% |
| O=C1CCC/C(=N\NC(=O)c2ccc(CSc3cccc4cccnc34)cc2)C1 | 12.6% |
| CC(C)(CO)Nc1ccc([N+](=O)[O-])cc1[N+](=O)[O-] | -8.26% |
| Cn1c(Cn2nnc3ccccc32)nnc1SCC(=O)N1c2ccccc2Sc2ccccc21 | -22.1% |
